Experimental data reported in PubChem BioAssay AID624417 (National Center for Advancing Translational Sciences (NCATS), 2012).
Hit rate of the full screen: of about 410,000 compounds, about 6,400 (1.6%) were called active. Inconclusive means that the source gave no clear call. Such entries were picked first, then a sample of the others. Calls follow the shape of the dose curve; as a rule, active = well fitted inhibition curve with a large enough effect; inconclusive = small, poorly fitted or top-dose-only effect; inactive = no such curve, though single readings can be large or run the other way. Where the call is inconclusive, the potency comes from a doubtful curve fit.

target: Glucagon-like peptide 1 receptor (Homo sapiens) (UniProt P43220); experiment: qHTS of GLP-1 Receptor Inverse Agonists (Inhibition Mode); settings: HEK293 GLP-1R CRE-luciferase, luminescence, 24 h, GLP-1R form is constitutively active; activity change, negative = inhibition: at 38.3 µM (top of the series) unless noted; also: nearly all actives have a fitted effect of over 55% in size
Summary of the method: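 qHTS in 1536-well format: reporter HEK293 cells expressing constitutive GLP-1R activity in DMEM + 10% Nu serum, 24 hr with compounds at 37 deg C, luminescence read after 12 min with detection reagent.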
% is scaled to controls: 0 for no effect and ±100 for the full control effect; potency is read from the fitted curve at half-maximal effect; tags tell the direction and shape of the fitted curve.

Sequence of UniProt P43220 (P43220 whole entry, looked up): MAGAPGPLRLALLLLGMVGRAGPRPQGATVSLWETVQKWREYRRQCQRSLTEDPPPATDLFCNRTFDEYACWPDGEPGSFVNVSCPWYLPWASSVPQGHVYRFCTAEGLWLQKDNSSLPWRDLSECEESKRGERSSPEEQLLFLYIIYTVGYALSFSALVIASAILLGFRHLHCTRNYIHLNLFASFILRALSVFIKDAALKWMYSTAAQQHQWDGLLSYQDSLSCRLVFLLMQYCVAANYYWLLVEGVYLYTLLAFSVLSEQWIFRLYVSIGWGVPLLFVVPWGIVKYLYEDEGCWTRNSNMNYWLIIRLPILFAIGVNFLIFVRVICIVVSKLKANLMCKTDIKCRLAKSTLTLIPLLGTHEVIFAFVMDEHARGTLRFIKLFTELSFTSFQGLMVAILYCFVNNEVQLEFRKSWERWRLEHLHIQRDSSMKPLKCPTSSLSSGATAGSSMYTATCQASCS

Row | Structure (SMILES) | Potency | activity change, negative = inhibition
1 | COc1cc(C(=O)OCC(=O)NC(=O)NC2CCCCC2)cc(Cl)c1OC | inconclusive: 12.6 µM [inhibitor, single point] | –
2 | CCOc1ccc(-c2cccc(NC(=O)COc3ccc(Cl)cc3)c2)nn1 | inconclusive: 10 µM [inhibitor, partial curve] | –
3 | CC(C)c1nnc(NC(=O)c2nc(S(=O)(=O)Cc3ccccc3F)ncc2Cl)s1 | inconclusive: 28.2 µM [inhibitor, single point] | –
4 | CN(C)c1ccc(NC(=O)CSC2=Nc3ccccc3C3=NC(CC(=O)NCc4ccccc4)C(=O)N23)cc1 (centres undefined) | – | inactive: 19.7%
5 | Cc1ccccc1-n1nc2c(c1NC(=O)c1ccc(Br)o1)CSC2 | inconclusive: 11.2 µM [inhibitor, partial curve] | –
6 | COc1ccc(N2C(=O)CCC(C(=O)N3CCC(C(N)=O)CC3)C2c2ccc(F)cc2)cc1 (centres undefined) | – | inactive: 3.49%
7 | CCOc1ccccc1CN(CCc1ccc2c(c1)OCO2)Cc1cccc(OC)c1OC | inconclusive: 10 µM [inhibitor, partial curve, poor fit] | –
8 | Fc1cccc(NC(=S)N2CCN(c3ccccn3)CC2)c1 | – | inactive: -6.69%
9 | CCOC(=O)c1c(C)[nH]c(CCC(=O)NCc2ccccc2C)c1C | – | inactive: 7.33%
10 | CCOC(=O)[C@]12CCC=C1N(Cc1ccco1)C(=O)[C@H](CC(=O)NCc1cccc(C(F)(F)F)c1)C2 | inconclusive: 31.6 µM [inhibitor, single point] | –
11 | CCN(CC(=O)Nc1ccccc1C(F)(F)F)C(=O)CSCC(=O)Nc1cc(C)on1 | inconclusive: 31.6 µM [inhibitor, single point] | –
12 | CCOC(=O)C1=NN(C(=O)c2ccc(C)cc2)C(O)(c2ccc(Cl)cc2)C1 (centres undefined) | – | inactive: -3.26%
13 | CC(C)CC(NC(=O)C1CCC(C)CC1)C(=O)Nc1ccccn1 (centres undefined) | inconclusive: 28.2 µM [inhibitor, single point] | –
14 | CN1C=CC(=O)[C@@H](OC(=O)Nc2ccc(Br)cc2)[C@H]1c1ccccc1Br | inconclusive: 10 µM [inhibitor, partial curve, poor fit] | –
15 | COc1ccc(CNC(=O)CN(C)Cc2ccc(C(C)(C)C)cc2)cc1 | inconclusive: 10 µM [inhibitor, partial curve, poor fit] | –
16 | COc1cc(CNC2CCCCCCC2)cc(Cl)c1OC | inconclusive: 22.4 µM [inhibitor, partial curve, poor fit] | –
17 | Cc1ccc(S(=O)(=O)NCCC(=O)Nc2ccc(C)cc2C(=O)c2ccccc2)cc1 | inconclusive: 28.2 µM [inhibitor, single point] | –
18 | Cc1onc(-c2ccccc2Cl)c1C(=O)NCCn1c(C)cc2ccccc21 | inconclusive: 17.8 µM [inhibitor, partial curve, poor fit] | –
19 | CCc1ccc(-c2cc(C)no2)cc1S(=O)(=O)Nc1ccc(Cl)cc1 | inconclusive: 7.94 µM [inhibitor, partial curve, poor fit] | –
20 | O=c1cc(-c2ccccc2)[nH]c2nc3ccccc3n12 | – | inactive: 0%
21 | COc1ccc(CCNCC(O)COc2ccc(OC)cc2C(C)(C)C)cc1 (centres undefined) | inconclusive: 10 µM [inhibitor, partial curve, poor fit] | –
22 | Cc1cc2c(NC(=O)Nc3ccc(C(F)(F)F)cc3)cccc2nn1 | inconclusive: 1.12 µM [inhibitor, partial curve, poor fit] | –

Row | Structure (SMILES) | Potency | activity change, negative = inhibition
23 | CC(=O)OCCNc1cc(Sc2nc3ccccc3[nH]2)c2nonc2c1[N+](=O)[O-] | – | inactive: -73.8%
24 | O=C(CN1CCCC1c1ccc2c(c1)OCCO2)NC(=O)Nc1ccccc1 (centres undefined) | inconclusive: 11.2 µM [inhibitor, single point] | –
25 | Cc1nc(-c2ccc(F)cc2)c(CC(=O)Nc2cc(S(=O)(=O)N3CCCCC3)ccc2C)s1 | inconclusive: 17.8 µM [inhibitor, partial curve, poor fit] | –
26 | Cc1sc(N)nc1C12CC3CC(CC(C3)C1)C2 | – | inconclusive: -53.2% [inhibitor] [at 7.66 µM]
27 | CC(C)[C@H](NC(=O)OC(C)(C)C)c1nnc(S(=O)(=O)Cc2c(F)cccc2Cl)o1 | inconclusive: 11.2 µM [inhibitor, single point] | –
28 | Nc1c(C(O)(C(F)(F)F)C(F)(F)F)cc(C(O)(C(F)(F)F)C(F)(F)F)c2ccccc12 | inconclusive: 2 µM [inhibitor, full curve, poor fit] | –
29 | CCOC(=O)N(C)c1c(CC)nc2c(OCc3ccccc3C)cccn12 | inconclusive: 6.31 µM [inhibitor, partial curve] | –
30 | Cc1cc(C(=O)NNc2c(Cl)cccc2Cl)n(C(C)(C)C)n1 | inconclusive: 28.2 µM [inhibitor, single point] | –
31 | Cc1ccc(OCc2nnc(SCC(=O)c3cccs3)n2-c2ccccc2)cc1C | active: 10 µM | –
32 | CC(C)c1ccc(NC(=O)c2ccc(Br)o2)cc1 | inconclusive: 11.2 µM [inhibitor, single point] | –
33 | CCC(=O)c1ccc(OCC(O)CN2CCc3ccccc3C2)cc1 (centres undefined) | – | inactive: -37.8%
34 | Cc1ccc(N2C(=O)c3ccccc3C2Nc2ccccc2F)nc1 (centres undefined) | inconclusive: 12.6 µM [inhibitor, single point] | –
35 | CCOC(=O)c1c(NC(=O)C(C)Sc2c[nH]c3ccccc23)sc2c1CCC2 (centres undefined) | inconclusive: 10 µM [inhibitor, partial curve, poor fit] | –
36 | CC(C)(C)C1=NN(C(=O)c2ccccc2)C(O)(C(C)(C)C)C1 (centres undefined) | inconclusive: 20 µM [inhibitor, single point] | –
37 | COc1ccc(C2C=C(c3ccc(C)c(C)c3)Nc3ncnn32)c(OC)c1OC (centres undefined) | inconclusive: 2 µM [inhibitor, full curve, poor fit] | –
38 | Cc1cc(C)n2c(Br)c(CSc3nc4ccccc4s3)nc2n1 | – | inactive: 5.2%
39 | Cc1ccc(N(Cc2cccs2)C(=O)COc2ccccc2[N+](=O)[O-])cc1 | inconclusive: 11.2 µM [inhibitor, partial curve, poor fit] | –
40 | Brc1ccccc1-c1nnc2sc(Cc3ccccc3)nn12 | inconclusive: 10 µM [inhibitor, partial curve, poor fit] | –
41 | COc1cccc(-c2cc(C(=O)N3N=C(C)CC3(O)C(F)F)c3ccccc3n2)c1 (centres undefined) | inconclusive: 11.2 µM [inhibitor, partial curve] | –
42 | O=S(=O)(N1CCCCC1)N1CCN(c2cc(Cl)ccc2Cl)CC1 | inconclusive: 28.2 µM [inhibitor, single point] | –
43 | COc1ccc(CNC(=O)COc2ccc(Br)c(C)c2)cc1 | inconclusive: 28.2 µM [inhibitor, single point] | –
44 | CCc1ccc(NC(=O)CSc2nc3ccsc3c(=O)n2C(C)CC)cc1 (centres undefined) | inconclusive: 28.2 µM [inhibitor, single point] | –

Row | Structure (SMILES) | Potency | activity change, negative = inhibition
45 | CCOC(=O)C1(CCc2ccccc2)CCN(C(=O)CCc2cnccn2)CC1 | inconclusive: 12.6 µM [inhibitor, single point] | –
46 | Cc1ccc(C)c(NC(=S)c2ccc3ccccc3n2)c1 | active: 5.62 µM | –
47 | CCOc1ccc2nc(N(CCN(C)C)C(=O)c3ccc4ccccc4c3)sc2c1 | inconclusive: 10 µM [inhibitor, single point] | –
48 | CCOC(=O)c1ccccc1NC(=O)N(Cc1ccco1)C1CCN(C(C)=O)CC1 | – | inactive: 18.1%
49 | CCOC(=O)COn1c(=O)c(-c2ccc(C)cc2)[n+]([O-])c2ccccc21 | – | inactive: 0.518%
50 | Cc1ccc(NC(=O)c2cccs2)cc1[N+](=O)[O-] | inconclusive: 28.2 µM [inhibitor, single point] | –
51 | CCOC(=O)C(c1ccccc1)C(Nc1ccccc1)c1ccccn1 (centres undefined) | inconclusive: 3.98 µM [inhibitor, full curve] | –
52 | CC1(C#N)c2ccccc2C(Br)=CN1C(=O)c1ccccc1 (centres undefined) | – | inactive: -7.06%
53 | Cc1ccc(C(=O)CSc2nc(-c3ccccc3)cc(=O)[nH]2)cc1 | – | inactive: 7.79%
54 | COc1ccccc1NC(=O)CSC1=NC(=O)C(NC(C)=O)C(=O)N1 (centres undefined) | – | inactive: 35.5%
55 | CC[C@@H]1C(c2ccc(F)cc2)=NN(c2ccccc2)[C@H]1C(=O)N1CCOC1=O | inconclusive: 28.2 µM [inhibitor, single point] | –
56 | CCN(CC)C(=O)[C@H]1C[C@H](CC(=O)NCc2ccc(OC)c(OC)c2)C(=O)N2CCc3c([nH]c4ccc(Cl)cc34)[C@]12C | inconclusive: 28.2 µM [inhibitor, single point] | –
57 | COc1ccc(-c2nc(SCC(=O)Nc3nccs3)c(-c3ccc(Cl)cc3)[nH]2)cc1 | inconclusive: 2.24 µM [inhibitor, full curve] | –
58 | COc1ccc(CNC(=O)Cn2cnc3c(NCc4ccccc4)ncnc32)cc1 | inconclusive: 5.62 µM [inhibitor, full curve, poor fit] | –
59 | COc1ccc(-c2cc3c(nn2)-c2ccccc2C3=O)cc1 | inconclusive: 1.58 µM [inhibitor, full curve, poor fit] | –
60 | COC(=O)C(C(=O)OC)C(CC(=O)c1ccc(C)cc1)c1cc(OC)c(OC)c(OC)c1 (centres undefined) | inconclusive: 3.55 µM [inhibitor, single point] | –
61 | COc1cc(CN2CCN(C(=O)c3ccc(-c4ccccc4)cc3)CC2)cc(OC)c1OC | inconclusive: 10 µM [inhibitor, partial curve] | –
62 | Fc1ccc(NC(=S)Nc2cccc(Cl)c2)cc1 | inconclusive: 28.2 µM [inhibitor, single point] | –
63 | CSc1ccc(C(=O)C2CCCN(C(=O)c3ccc4c(c3)OCO4)C2)cc1 (centres undefined) | inconclusive: 7.08 µM [inhibitor, partial curve, poor fit] | –
64 | Cc1noc(-c2ccc(C(F)(F)F)cc2)c1NC(=O)Nc1ccc(Cl)cc1 | inconclusive: 4.47 µM [inhibitor, full curve] | –
